One assay has as its system HSkMC. Kind of assay: cytotoxicity call (relative viability < 0.9). The settings on record: 10 µM.
The next assay deals with HepG2. Description: cytotoxicity call (relative viability < 0.9). The settings on record: 10 µM.
In a further assay the test system is S. aureus RN4220. Kind of assay: growth inhibition call (relative growth <= 0.2). The settings on record: 50 µM.

The list shows a part of the results.

As to `CCC(=O)Nn1c(C)nnc1C`, the cytotoxicity call with HSkMC and with HepG2 was “inactive” each time. The growth inhibition call in the assay with S. aureus RN4220 was “inactive”.

For `COc1ccc2c3c([nH]c2c1)[C@H](CO)N(Cc1ccc(cc1)Cl)C[C@]13CCN(CCc2ccccc2)CC1`, the cytotoxicity call with HSkMC is “inactive”. Further, the cytotoxicity call in the assay with HepG2 is “active”. Further, the growth inhibition call with S. aureus RN4220 is “inactive”.

Regarding `C[C@@H]1CN([C@H](C)CO)C(=O)c2cccc(NS(C)(=O)=O)c2O[C@@H]1CN(C)S(C)(=O)=O`, the cytotoxicity call with HSkMC and with HepG2 was “inactive” each time. Moreover, the growth inhibition call in the assay with S. aureus RN4220 was “inactive”.

Consider `CO[C@@H](CN(C)C(=O)c1ccc2c(c1)OCO2)[C@H](C)CN([C@@H](C)CO)S(=O)(=O)c1ccc(F)cc1`, for which the cytotoxicity call in the assay with HSkMC and in the assay with HepG2 was “inactive” in each case. Also, the growth inhibition call with S. aureus RN4220 is “inactive”.

As for `O=C(CCCCC(=O)N/N=C/[C@@H](O)[C@H](O)[C@H](O)CO)NO`, the cytotoxicity call with HSkMC and in the assay with HepG2 was “inactive” throughout. Moreover, the growth inhibition call in the assay with S. aureus RN4220 is “inactive”.

As to `C[C@@H]1CN([C@@H](C)CO)C(=O)c2cc(NC(=O)Nc3ccc(C(F)(F)F)cc3)ccc2O[C@@H](C)CCCCO[C@@H]1CN(C)C(=O)Nc1cccc2ccccc12`, the cytotoxicity call in the assay on HSkMC was “active”. Besides, the cytotoxicity call with HepG2 was “inactive”. The growth inhibition call in the assay on S. aureus RN4220 is “inactive”.

In the case of `Cc1ccc(S(=O)(=O)Nc2ccc3c(c2)C(=O)N([C@@H](C)CO)C[C@H](C)[C@H](CN(C)C(=O)Nc2ccccc2)OCCCC[C@H](C)O3)cc1`, the cytotoxicity call in the assay on HSkMC and with HepG2 was “inactive” each time. Further, the growth inhibition call with S. aureus RN4220 was “inactive”.

As to `C[C@H](CO)N1C[C@H](C)[C@@H](CN(C)Cc2ccc(Cl)c(Cl)c2)Oc2ccc(NC(=O)Nc3cccc4ccccc34)cc2CC1=O`, the cytotoxicity call with HSkMC and in the assay on HepG2 was “inactive” throughout. The growth inhibition call in the assay with S. aureus RN4220 is “inactive”.

As to `C[C@@H]1CCCCO[C@@H](CN(C)Cc2ccc3c(c2)OCO3)[C@@H](C)CN([C@@H](C)CO)C(=O)c2cc(NS(=O)(=O)c3ccc(F)cc3)ccc2O1`, the cytotoxicity call in the assay on HSkMC is “inactive”. Besides, in the assay on HepG2, the cytotoxicity call was “active”. Moreover, the growth inhibition call in the assay with S. aureus RN4220 is “inactive”.

In the case of `C[C@@H]1CN([C@@H](C)CO)C(=O)CCCn2cc(nn2)CO[C@H]1CN(C)S(=O)(=O)c1cn(C)cn1`, the cytotoxicity call with HSkMC and with HepG2 was “inactive” in each case. In addition, the growth inhibition call in the assay with S. aureus RN4220 is “inactive”.

As for `C[C@H]1CN([C@@H](C)CO)C(=O)CCCn2cc(nn2)CO[C@H]1CN(C)S(=O)(=O)c1cn(C)cn1`, the cytotoxicity call in the assay with HSkMC and in the assay on HepG2 was “inactive” in each case. For the same compound, in the assay with S. aureus RN4220, the growth inhibition call is “inactive”.

Take `CS(=O)(=O)NCc1nnnn1-c1ccc(F)c(F)c1`: the cytotoxicity call in the assay on HSkMC and in the assay on HepG2 was “inactive” throughout. Moreover, in the assay on S. aureus RN4220, the growth inhibition call was “inactive”.

On to `O=C(/C=C/c1ccc2c(c1)O[C@@H](C(=O)O)[C@@H](c1ccc(O)c(O)c1)O2)O[C@H](Cc1ccc(O)c(O)c1)C(=O)O`, for which the cytotoxicity call with HSkMC and in the assay with HepG2 was “inactive” each time. Moreover, the growth inhibition call with S. aureus RN4220 was “inactive”.

As to `C[C@H]1CN([C@@H](C)CO)C(=O)c2cc(NC(=O)Nc3ccc(C(F)(F)F)cc3)ccc2O[C@H]1CN(C)Cc1ccc(C(=O)Nc2ccccc2N)cc1`, the cytotoxicity call with HSkMC is “active”. Besides, the cytotoxicity call in the assay on HepG2 was “inactive”. The growth inhibition call in the assay on S. aureus RN4220 was “inactive”.

For `C[C@@H]1CCCCO[C@@H](CN(C)C(=O)c2ccccc2)[C@H](C)CN([C@@H](C)CO)C(=O)c2cc(NC(=O)Cc3ccccc3)ccc2O1`, the cytotoxicity call in the assay on HSkMC and with HepG2 was “inactive” in each case. In the assay on S. aureus RN4220, the growth inhibition call was “inactive”.

Turning to `CCC(=O)Nc1ccc2c(c1)C(=O)N(C)C[C@@H](OC)[C@H](C)CN(C(=O)CN1CCOCC1)[C@H](C)CO2`, the cytotoxicity call with HSkMC and in the assay with HepG2 was “inactive” in each case. The growth inhibition call in the assay on S. aureus RN4220 was “inactive”.

In the case of `C[C@@H]1CN([C@@H](C)CO)C(=O)c2cc(NC(=O)CCCCCC(=O)Nc3ccccc3N)ccc2O[C@H]1CN(C)Cc1ccccc1`, the cytotoxicity call with HSkMC was “inactive”. In the assay on HepG2, the cytotoxicity call is “active”. For the same compound, the growth inhibition call with S. aureus RN4220 is “inactive”.

Consider `CC(C)c1ccc(/C=C2\CSc3ccccc3C2=O)cc1`, for which the cytotoxicity call in the assay with HSkMC and with HepG2 was “inactive” in each case. In the assay on S. aureus RN4220, the growth inhibition call is “inactive”.

For `[O-]/[N+](=N\O[C@H]1O[C@H](CO)[C@@H](O)[C@H](O)[C@@H]1O)N1CCCC1`, the cytotoxicity call in the assay on HSkMC and in the assay with HepG2 was “inactive” throughout. Besides, in the assay with S. aureus RN4220, the growth inhibition call is “inactive”.

For the compound `C[C@H]1CCCCO[C@H](CN(C)S(=O)(=O)c2ccc(F)cc2)[C@@H](C)CN([C@@H](C)CO)C(=O)c2cc(NS(=O)(=O)c3cn(C)cn3)ccc2O1`, the cytotoxicity call in the assay with HSkMC and in the assay with HepG2 was “inactive” each time. Moreover, the growth inhibition call with S. aureus RN4220 was “inactive”.

Consider `COc1ccc(NC(=O)Nc2ccc3c(c2)C(=O)N([C@H](C)CO)C[C@H](C)[C@@H](CN(C)C(=O)Cc2ccccc2)OCCCC[C@@H](C)O3)cc1`, for which the cytotoxicity call in the assay with HSkMC and in the assay with HepG2 was “inactive” each time. The growth inhibition call in the assay with S. aureus RN4220 was “inactive”.

In the case of `CO[C@@H]1CN(C)C(=O)c2ccc(NC(=O)Nc3cccc(Cl)c3)cc2OC[C@H](C)N(C(=O)Nc2c(C)noc2C)C[C@H]1C`, the cytotoxicity call in the assay with HSkMC and in the assay with HepG2 was “inactive” throughout. Further, the growth inhibition call in the assay with S. aureus RN4220 is “inactive”.

Consider `CN(C)CC(=O)N[C@H]1C=C[C@H](CC(=O)NCCN2CCCCC2)O[C@@H]1CO`, for which the cytotoxicity call in the assay on HSkMC and in the assay on HepG2 was “inactive” throughout. The growth inhibition call in the assay with S. aureus RN4220 is “inactive”.

Regarding `Nc1ncnc2c1c(I)cn2[C@@H]1O[C@H](CO)[C@@H](O)[C@H]1O`, the cytotoxicity call in the assay with HSkMC is “inactive”. Moreover, the cytotoxicity call in the assay on HepG2 was “active”. For the same compound, the growth inhibition call in the assay with S. aureus RN4220 is “inactive”.

Turning to `C[C@@H]1CN([C@@H](C)CO)C(=O)c2cc(NC(=O)Nc3ccccc3)ccc2O[C@@H](C)CCCCO[C@H]1CN(C)S(=O)(=O)c1ccccc1F`, the cytotoxicity call in the assay on HSkMC (human skeletal muscle cells) and in the assay on HepG2 was “inactive” throughout. Besides, the growth inhibition call in the assay with S. aureus RN4220 was “inactive”.

As to `CC/C=C\C/C=C\C/C=C\CCCCCCCC(=O)O`, the cytotoxicity call in the assay with HSkMC and in the assay with HepG2 was “inactive” throughout. Further, the growth inhibition call in the assay with S. aureus RN4220 was “inactive”.

Consider `O=C1CCCN1C1CCNCC1`, for which the cytotoxicity call in the assay with HSkMC and with HepG2 was “inactive” each time. The growth inhibition call in the assay on S. aureus RN4220 was “inactive”.

Turning to `C[C@@H]1CN([C@H](C)CO)C(=O)c2cc(NS(=O)(=O)c3cn(C)cn3)ccc2O[C@@H](C)CCCCO[C@@H]1CN(C)S(=O)(=O)c1ccc(F)cc1`, the cytotoxicity call with HSkMC and with HepG2 was “inactive” in each case. In addition, the growth inhibition call in the assay on S. aureus RN4220 is “inactive”.

Source of the values: the antibiotic and cytotoxicity screens of Wong et al. (2023).
